Data published in the antibiotic and cytotoxicity screens of Wong et al. (2023).
Some of the results follow.

The molecules below were run on HepG2 (assay: cytotoxicity call (relative viability < 0.9)). Conditions: 10 µM.

Row | Structure (SMILES) | cytotoxicity call
1 | COc1cc2c(cc1OC)C(=O)NCC2 | active
2 | Cc1ccc(C(=O)Nc2ccc(S(=O)(=O)O)c3cc(S(=O)(=O)O)cc(S(=O)(=O)O)c23)cc1NC(=O)c1cccc(NC(=O)Nc2cccc(C(=O)Nc3cc(C(=O)Nc4ccc(S(=O)(=O)O)c5cc(S(=O)(=O)O)cc(S(=O)(=O)O)c45)ccc3C)c2)c1 | inactive
3 | CN1CCN(C(=O)[C@@H]2[C@@H](CO)[C@@H]3Cn4c(ccc(-c5cncnc5)c4=O)[C@@H]3N2CC2CC2)CC1 | inactive
4 | C[C@@H]1CN([C@@H](C)CO)C(=O)c2cc(NC(=O)Nc3ccccc3)ccc2O[C@@H]1CN(C)C(=O)Nc1ccc(C(F)(F)F)cc1 | inactive
5 | C[C@@H]1CN([C@H](C)CO)C(=O)c2cccc(NC(=O)c3nc4ccccc4s3)c2O[C@H]1CN(C)Cc1ccc(Cl)c(Cl)c1 | inactive
6 | C[C@@H]1CN([C@@H](C)CO)C(=O)Cc2cc(NC(=O)Cc3ccccc3)ccc2O[C@@H]1CN(C)S(=O)(=O)c1ccccc1 | inactive
7 | COc1ccc(NC(=O)N(C)C[C@H]2Oc3ccc(NC(=O)CCCN(C)C)cc3C(=O)N([C@H](C)CO)C[C@H]2C)cc1 | inactive
8 | CCS(=O)(=O)N1C[C@]2(C1)CN([C@H](CO)c1[nH]c3cc(ccc3c12)OC)C(=O)Nc1c(noc1C)C | inactive
9 | COc1ccc(S(=O)(=O)Nc2ccc3c(c2)C(=O)N([C@H](C)CO)C[C@H](C)[C@H](CN(C)Cc2ccc(C(F)(F)F)cc2)OCCCC[C@@H](C)O3)cc1 | active
10 | CON=C(C(=O)NC1C(=O)N2C(C(=O)OC(C)OC(C)=O)=C(COC(N)=O)CSC12)c1ccco1 (stereo not given) | inactive
11 | Cc1noc(C)c1NC(=O)N(C)C[C@H]1OCCCC[C@@H](C)Oc2ccc(NC(=O)Nc3ccc4c(c3)OCO4)cc2C(=O)N([C@H](C)CO)C[C@@H]1C | inactive
12 | C[C@H]1CCCCO[C@H](CN(C)Cc2ccc(Cl)c(Cl)c2)[C@@H](C)CN([C@@H](C)CO)C(=O)c2cc(NC(=O)Nc3ccc(F)cc3)ccc2O1 | active
13 | Cc1ccc(S(=O)(=O)Nc2ccc3c(c2)C(=O)N([C@@H](C)CO)C[C@H](C)[C@H](CN(C)Cc2ccccc2)OCCCC[C@@H](C)O3)cc1 | inactive
14 | C[C@@H]1CN([C@@H](C)CO)C(=O)c2cc(NC(=O)Nc3cccc4ccccc34)ccc2O[C@@H](C)CCCCO[C@H]1CN(C)C(=O)NC1CCCCC1 | inactive
15 | C[C@@H]1CCCCO[C@H](CN(C)Cc2ccc(Cl)c(Cl)c2)[C@@H](C)CN([C@@H](C)CO)C(=O)c2cc(NS(=O)(=O)c3cn(C)cn3)ccc2O1 | inactive
16 | Clc1ccc(/C=N/Cc2ccc(-c3cccs3)s2)cc1 | active
17 | C[C@@H]1CCCCO[C@H](CN(C)C(=O)Nc2ccc3c(c2)OCO3)[C@@H](C)CN([C@@H](C)CO)C(=O)c2cc(NC(=O)Cc3ccccc3)ccc2O1 | inactive
18 | C=CCOC(=O)[C@@H]1[C@H]2C(=O)O[C@H](c3ccccc3)[C@H](c3ccccc3)N2[C@H](c2ccc(OCCOC(=O)[C@H]3C[C@H]4C(=O)N5CCC[C@H]5C(=O)N4[C@H]3c3ccc(O)cc3)cc2)[C@@]12C(=O)Nc1ccc(I)cc12 | inactive
19 | O=c1cc(-c2ccccc2)oc2ccccc12 | inactive
20 | C[C@@H]1CN([C@@H](C)CO)C(=O)c2cc(NC(=O)Nc3ccccc3)ccc2O[C@@H](C)CCCCO[C@@H]1CN(C)S(=O)(=O)c1ccccc1 | inactive

Row | Structure (SMILES) | cytotoxicity call
21 | COc1cccc(S(=O)(=O)Nc2ccc3c(c2)OC[C@H](C)N(C(=O)Cc2cccnc2)C[C@H](C)[C@@H](OC)CN(C)C3=O)c1 | inactive
22 | CN1CC(=O)N=C1NC(=O)[C@H]1CCCN(S(=O)(=O)c2ccc3c(c2)oc(=O)n3C)C1 | inactive
23 | COCC#Cc1cnc2c(c1)C(=O)N([C@H](C)CO)C[C@@H](C)[C@H](CN(C)S(=O)(=O)c1cccc(OC)c1)O2 | inactive
24 | COc1ccc(S(=O)(=O)N(C)C[C@@H]2Oc3ccc(NC(=O)Nc4cc(Cl)cc(Cl)c4)cc3CC(=O)N([C@@H](C)CO)C[C@@H]2C)cc1Cl | active
25 | C[C@@H]1CN([C@H](C)CO)S(=O)(=O)c2ccc(-c3cncnc3)cc2O[C@H]1CN(C)C(=O)Cc1ccccc1 | inactive
26 | C[C@H]1CN([C@@H](C)CO)C(=O)c2cc(NS(C)(=O)=O)ccc2O[C@@H]1CN(C)Cc1ccc2c(c1)OCO2 | inactive
27 | Cc1ccc(S(=O)(=O)N(C)C[C@@H]2OCCCC[C@H](C)Oc3ccc(NC(=O)CCCCCC(=O)Nc4ccccc4N)cc3C(=O)N([C@H](C)CO)C[C@@H]2C)cc1 | inactive
28 | Cc1ncc(C[n+]2csc(CCO)c2C)c(N)n1.Cl.[Cl-] | inactive
29 | C[C@@H]1CN([C@H](C)CO)C(=O)c2cc(NC(=O)CCC(F)(F)F)ccc2O[C@@H](C)CCCCO[C@H]1CN(C)Cc1ccc(Cl)c(Cl)c1 | active
30 | COc1ccc(NC(=O)N(C)C[C@@H]2OCCCC[C@H](C)Oc3ccc(NC(=O)c4ccncc4)cc3C(=O)N([C@@H](C)CO)C[C@@H]2C)cc1 | inactive
31 | COc1ccc(CN(C)C[C@H]2OCCCC[C@@H](C)Oc3ccc(NC(=O)Nc4ccccc4)cc3C(=O)N([C@@H](C)CO)C[C@@H]2C)cc1 | inactive
32 | COc1ccc(S(=O)(=O)Nc2ccc3c(c2)C(=O)N([C@@H](C)CO)C[C@H](C)[C@@H](CN(C)C(=O)c2ccccc2)OCCCC[C@H](C)O3)cc1 | inactive
33 | Cc1ccccc1S(=O)(=O)N1C[C@H](O)COC[C@H]2O[C@H](CC(=O)N3CCC(Cc4ccccc4)CC3)CC[C@@H]21 | active
34 | C[C@@H]1CN([C@H](C)CO)C(=O)c2cc(NC(=O)NC3CCCCC3)ccc2O[C@H]1CN(C)Cc1ccc(Oc2ccccc2)cc1 | inactive
35 | C[C@H](CO)N1C[C@H](C)[C@H](CN(C)Cc2ccc(-c3ccccc3)cc2)Oc2ccc(NC(=O)Nc3ccc(F)cc3)cc2CC1=O | active
36 | Cc1noc(C)c1NC(=O)N(C)C[C@@H]1OCCCC[C@@H](C)Oc2ccc(NC(=O)Nc3ccc4c(c3)OCO4)cc2C(=O)N([C@@H](C)CO)C[C@H]1C | inactive
37 | COc1ccc(NC(=O)N(C)C[C@@H]2OCCCC[C@@H](C)Oc3ccc(NC(=O)C4CCCCC4)cc3C(=O)N([C@H](C)CO)C[C@H]2C)cc1 | inactive
38 | CC(C)=CCC/C(C)=C/CC/C(C)=C/CC/C(C)=C/CO | inactive
39 | C=C1CCC(O)CC1=CC=C1CCCC2(C)C1CCC2C(C)CCCC(C)C (stereo not given) | inactive
40 | COc1ccc(CN(C)C[C@H]2Oc3c(NC(=O)CCCCCC(=O)Nc4ccccc4N)cccc3C(=O)N([C@@H](C)CO)C[C@@H]2C)cc1 | active
